Test results: publication PMC4336329 (PLoS ONE, 2015)
Hit rate of the full screen: of about 310,000 compounds, about 14,000 (4.5%) showed an effect of 50% or more. The effect is printed as a negative number. Some of the results follow.

The compounds below were run against human ether-à-go-go-related gene (hERG) potassium channel (human, UniProt Q12809) (assay: primary screen, population patch clamp on CHO cells stably expressing hERG).
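Note: peak tail current of the secondary pulse compared with the same well before compound.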

Sequence of human ether-à-go-go-related gene (hERG) potassium channel (Q12809 whole entry, looked up): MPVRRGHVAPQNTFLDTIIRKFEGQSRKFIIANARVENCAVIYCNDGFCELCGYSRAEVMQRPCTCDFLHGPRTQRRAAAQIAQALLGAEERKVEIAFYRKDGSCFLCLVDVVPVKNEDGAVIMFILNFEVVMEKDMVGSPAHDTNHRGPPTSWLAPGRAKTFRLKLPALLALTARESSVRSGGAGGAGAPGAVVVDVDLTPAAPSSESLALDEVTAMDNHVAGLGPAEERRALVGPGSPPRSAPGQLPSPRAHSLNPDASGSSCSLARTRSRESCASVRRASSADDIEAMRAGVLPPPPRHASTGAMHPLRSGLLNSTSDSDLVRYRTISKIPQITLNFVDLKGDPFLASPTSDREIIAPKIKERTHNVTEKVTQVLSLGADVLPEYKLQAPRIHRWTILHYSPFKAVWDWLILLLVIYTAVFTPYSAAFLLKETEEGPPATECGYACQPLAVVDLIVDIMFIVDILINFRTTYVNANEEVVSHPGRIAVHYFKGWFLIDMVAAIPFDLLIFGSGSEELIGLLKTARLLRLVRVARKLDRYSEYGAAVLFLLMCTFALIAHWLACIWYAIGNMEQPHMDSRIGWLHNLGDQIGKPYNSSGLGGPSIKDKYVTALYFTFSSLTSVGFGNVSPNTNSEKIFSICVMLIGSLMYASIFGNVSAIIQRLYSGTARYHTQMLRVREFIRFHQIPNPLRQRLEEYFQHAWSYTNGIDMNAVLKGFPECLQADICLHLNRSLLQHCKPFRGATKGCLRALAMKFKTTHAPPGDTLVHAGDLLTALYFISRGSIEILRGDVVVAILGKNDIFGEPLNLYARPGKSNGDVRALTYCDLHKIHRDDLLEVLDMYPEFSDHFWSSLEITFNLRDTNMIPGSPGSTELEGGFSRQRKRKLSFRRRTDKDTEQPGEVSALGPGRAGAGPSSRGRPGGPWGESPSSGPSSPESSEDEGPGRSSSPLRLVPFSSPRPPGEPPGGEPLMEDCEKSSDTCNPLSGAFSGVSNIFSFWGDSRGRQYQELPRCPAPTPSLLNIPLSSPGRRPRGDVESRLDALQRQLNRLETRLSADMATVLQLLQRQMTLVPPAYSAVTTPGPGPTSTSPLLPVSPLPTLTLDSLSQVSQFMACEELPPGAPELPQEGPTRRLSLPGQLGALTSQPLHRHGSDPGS

| Structure (SMILES) | hERG current change (%, negative = inhibition) at 10uM [%] |
| --- | --- |
| Cc1nn(CC(=O)NCCC2=CCCCC2)c(C)c1[N+](=O)[O-] | 17 |
| O=C(Cc1ccc(F)cc1)N1CCOCC1 | 15.7 |
| N#Cc1c(-c2ccccc2)ccn(Cc2cccc(Cl)c2)c1=O | 8.43 |
| CNC(=S)N(CCc1c(C)[nH]c2ccc(OC)cc12)Cc1ccco1 | 2.5 |
| CC1(OC(=O)CCc2ccccc2)C(=O)C=C2C=C(c3ccc(C#N)cc3)N(CCc3ccccn3)C=C2C1=O (centres unmarked) | -51.8 |
| Cc1ccc(C=NCc2ccncc2)c(O)c1 | 2.62 |
| CC(C)[C@H](NS(=O)(=O)c1cccc(Cl)c1)C(=O)OCC(=O)NC(=O)CN1CCCC1=O | -3.05 |
| Cc1ccc(-n2nnnc2CNC(=O)C2CC(=O)N(c3ccccc3)C2)cc1C (centres unmarked) | -1.96 |
| CC1CCCCN1Cc1ccc(Cl)nc1 (centres unmarked) | 9.09 |
| CC(/C=N/NC(=O)c1cc(C(C)C)[nH]n1)=C\c1ccccc1 | -6.84 |
| COc1ccc(C(C#N)N2N=C(c3ccccc3)CC2c2ccccc2)cc1OC (centres unmarked) | 11.5 |
| Cc1onc(-c2ccccc2Cl)c1C(N)=O | 11.5 |
| CN(Cc1ccccc1)C(=O)c1ccco1 | -4.28 |
| Cn1ccs/c1=N\C(=O)Nc1ccccc1 | -0.0899 |
| CC(=O)c1ccc(NC2OC(CO)C(O)C(O)C2O)cc1 (centres unmarked) | -0.244 |
| CC(C)(C)C(=O)OC/C(N)=N/OC(=O)c1ccc(Cl)c(Cl)c1 | -12.6 |
| Cc1ccc(C2Nc3ccccc3-c3nc4ccccc4n32)o1 (centres unmarked) | -11.7 |
| Cc1ncc2c(n1)-c1cc(F)ccc1SC2 | 8.14 |
| COc1ccc(C)cc1NC(=O)CSc1nc2ccccc2nc1N1CCCCC1 | 23.8 |

| Structure (SMILES) | hERG current change (%, negative = inhibition) at 10uM [%] |
| --- | --- |
| Cc1cccc(N(CC(=O)NC2CCCC2)C(=O)CCC(=O)Nc2ccccn2)c1 | 15.4 |
| CCC(C)(C)n1nnnc1C(c1ccc(Cl)cc1)N1CCN(C)CC1.Cl (centres unmarked) | 2.83 |
| O=C1ON=C(c2ccccc2)/C1=C/c1ccc(-c2ccccc2[N+](=O)[O-])o1 | 4.57 |
| COC(C/C=C\[C@H](O)[C@@H](C)OCc1ccccc1)OC | 0.194 |
| CCC1(c2ccc(N)cc2)CCC(=O)NC1=O (centres unmarked) | 16.3 |
| Cl.O=S(=O)(NCC(c1ccco1)N1CCCCC1)c1ccccc1C(F)(F)F (centres unmarked) | -6.8 |
| Cc1c(C(=O)N2CC(C)OC(C)C2)oc2ccccc12 (centres unmarked) | -4.81 |
| COc1ccc(NC(=O)C2CCCN(S(=O)(=O)c3cnc[nH]3)C2)cc1 (centres unmarked) | -1.19 |
| CCOc1ccc(CN2CCN(S(=O)(=O)c3ccc(NC(C)=O)cc3)CC2)cc1.O=C(O)C(=O)O | -50.4 |
| Cc1cccn2c(=O)c3cc(C#N)c(=NC(=O)c4ccncc4)n(CCCOC(C)C)c3nc12 | -85.1 |
| CCCc1cc(=O)oc2c3c(cc(OCC(=O)N4CCC[C@H]4C(=O)O)c12)OC(C)(C)CC3 | 8.03 |
| Cc1cc(C)c2oc(C(=O)Nc3ccc(S(=O)(=O)N4CCC(C)CC4)cc3)cc(=O)c2c1 | 0.0534 |
| COC(=O)Cc1csc(Nc2c(C)n(C)n(-c3ccccc3)c2=O)n1 | 10.3 |
| COc1ccc(-n2c(C)n[nH]c2=O)cc1OC | 10.7 |
| O=C(/C=C/c1ccc(Cl)cc1)NC(=S)Nc1ccc(CN2CCOCC2)cc1 | 20.2 |
| COC(=O)[C@H](CCSC)NC(=O)N1CCN(c2cccc(C(F)(F)F)c2)CC1 | -1.06 |
| CN(C)CCCN(C(=O)c1ccc(Br)s1)c1nc2cc3c(cc2s1)OCCO3.Cl | -33.9 |
| CC(=O)N(C)c1ccc(N=C2C(=O)Nc3ccccc32)cc1 | 6.68 |
| Cc1cc(C)n(CC(=O)NNC(=O)c2cccc(C(F)(F)F)c2)n1 | 12.7 |

| Structure (SMILES) | hERG current change (%, negative = inhibition) at 10uM [%] |
| --- | --- |
| CCCCN(S(=O)(=O)c1ccccc1)S(=O)(=O)c1ccccc1 | 11.7 |
| CC(C)(C)c1nnc(N/N=C/c2cc(Br)ccc2O)n(N)c1=O | -18.4 |
| COc1ccc(CC(=O)NCC2CCCN(Cc3cccc(C(F)(F)F)c3)C2)cc1 (centres unmarked) | -28 |
| O=C(N/N=C/c1ccc([N+](=O)[O-])s1)c1ccncc1 | 16.8 |
| Cc1ccc(S(=O)(=O)N(CC(O)CN2CCCCC2)c2cccc([N+](=O)[O-])c2)cc1 (centres unmarked) | -78.8 |
| CCOC(=O)c1[nH]c(C(=O)O)c(OC(=O)CC)c1C | 17.4 |
| CCOC(=O)c1sc(NC(=O)CSc2nnnn2-c2ccccc2)c(C(=O)OCC)c1C | 4.34 |
| CN(CC(=O)Nc1ccc(F)c(F)c1F)C(=O)Cn1cnc2c1c(=O)n(C)c(=O)n2C | -2.29 |
| Cc1cccc(NC(=O)/C(=C\c2ccco2)NC(=O)c2cccs2)c1 | -11.8 |
| CC12CCC(C(=O)NNC(=O)c3ccc(F)cc3)(OC1=O)C2(C)C (centres unmarked) | 24.6 |
| Cc1ccc(NC(=O)CN2C(=O)N/C(=C/c3ccc(C)o3)C2=O)cc1 | 11.9 |
| COc1cc(-c2nn3c(-c4cccnc4)nnc3s2)cc(OC)c1OC | -1.97 |
| COc1ccc2cc(C(=O)C3CCCN(C(=O)c4cc5nc(C)cc(C)n5n4)C3)ccc2c1 (centres unmarked) | -12.6 |
| Cc1ccc(NC(=O)COc2ncnc3cc([N+](=O)[O-])ccc23)cc1S(=O)(=O)N1CCOCC1 | -30.5 |
| CCN(CC)S(=O)(=O)c1cccc(C(=O)OC2CCOC2=O)c1 (centres unmarked) | 2.12 |
| O=C(Nc1ccc(F)cc1F)c1ccc(-n2cccn2)nc1 | 19.5 |
| Nc1cc(Cl)nc(N/N=C/c2c(O)ccc3ccccc23)n1 | 9.93 |
| CC1=C(C(=O)N2CCOCC2)C(c2cccs2)NC(=O)N1 (centres unmarked) | 8.43 |
